# Reference: PubChem BioAssay AID2147 (National Center for Advancing Translational Sciences (NCATS), 2009)
# Screen size: about 230,000 compounds; about 3,600 (1.6%) were called active. Inconclusive means that the source gave no clear call. Such entries were picked first, then a sample of the others. Calls follow the shape of the dose curve; as a rule, active = well fitted inhibition curve with a large enough effect (not every such curve was filed as active); inconclusive = small, poorly fitted or top-dose-only effect, or another doubt; inactive = no such curve, though single readings can be large or run the other way. Potencies beside an inconclusive call are fits to weak or partial responses and may not hold up.
# Target: Lysine-specific demethylase 4E (Homo sapiens) (UniProt B2RXH2)
# Assay: qHTS Assay for Inhibitors of Human Jumonji Domain Containing 2E (JMJD2E)
# Conditions: JMJD2E catalytic domain, FDH-coupled NADH fluorescence (FDH is formaldehyde dehydrogenase); series mostly up to 57.1 µM; activity change, negative = inhibition: at the top concentration
# Also: nearly all actives have a fitted effect of over 50% in size.
# 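For activity change, negative = inhibition in this document: 0% = wells with enzyme and -100% = buffer wells without enzyme.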
# Potency is read from the fitted curve at half-maximal effect; tags tell the direction and shape of the fitted curve.
# Chain of UniProt B2RXH2 (B2RXH2 whole entry, looked up, the tested form may be a part): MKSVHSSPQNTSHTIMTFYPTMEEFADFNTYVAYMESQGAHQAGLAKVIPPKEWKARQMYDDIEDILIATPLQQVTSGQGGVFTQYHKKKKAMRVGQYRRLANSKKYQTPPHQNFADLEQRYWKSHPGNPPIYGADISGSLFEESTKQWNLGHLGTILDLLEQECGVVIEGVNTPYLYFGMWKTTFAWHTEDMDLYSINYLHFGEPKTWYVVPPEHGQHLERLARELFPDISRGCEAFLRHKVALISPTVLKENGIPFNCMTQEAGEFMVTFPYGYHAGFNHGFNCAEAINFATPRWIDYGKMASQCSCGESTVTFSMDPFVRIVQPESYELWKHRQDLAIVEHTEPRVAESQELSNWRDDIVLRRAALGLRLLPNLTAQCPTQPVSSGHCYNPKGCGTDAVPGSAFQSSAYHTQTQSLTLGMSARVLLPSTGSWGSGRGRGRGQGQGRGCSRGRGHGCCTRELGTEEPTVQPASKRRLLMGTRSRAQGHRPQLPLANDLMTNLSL
Structure (SMILES),Potency,"activity change, negative = inhibition"
Cc1ccc(-n2c(O)c(C=Nc3cc(C)on3)c3ccccc3c2=O)c(C)c1,"inconclusive: 28.2 µM [inhibitor, partial curve]",–
O=C(Nc1nccs1)c1ccc(COc2ccc(F)cc2)o1,–,inactive: -6.19%
Cc1noc(NS(=O)(=O)c2ccc(N/C=C/C(=O)c3ccncc3)cc2)c1C,–,inactive: 2%
O=C(CCC(=O)N(c1cccc(F)c1)C(C(=O)NC1CCCC1)c1ccncc1)Nc1cccnc1 (stereo not given),"inconclusive: 35.5 µM [inhibitor, single point]",–
CC(C)Cn1c(=O)c(-[n+]2ccccc2)c([O-])c2ccccc21,"inconclusive: 11.2 µM [inhibitor, partial curve]",–
CCOc1ccc(Br)cc1C1C(C(=O)OC)=C(N)Oc2cc(N(C)C)ccc21 (stereo not given),–,inactive: -3.08%
O=c1c(CN2CCN(c3ccccn3)CC2)coc2ccccc12,–,inactive: 1.51%
Cc1nc2ccccc2c2nc3ccccc3n12,"inconclusive: 35.5 µM [inhibitor, partial curve]",–
C=C(CC1([C@@H](NP(=O)(c2ccccc2)c2ccccc2)[C@H]2C[C@@H]2CCCC)CC1)c1cccc(OC)c1,"inconclusive: 28.2 µM [inhibitor, single point]",–
CC1(C)Cc2ccccc2C(NNC(=O)c2ccccn2)=N1,active: 25.1 µM,–
Cn1c2[n+](c3ccc(Cl)cc3c1=O)Cc1ccccc1-2,"inconclusive: 35.5 µM [inhibitor, single point]",–
CCNc1ccc2c(Cl)cc(=O)oc2c1,"inconclusive: 31.6 µM [inhibitor, partial curve]",–
COc1ccc(C2CC(=O)N(CCCN(C)CCc3ccc(OC)c(OC)c3)C2)cc1 (stereo not given),"inconclusive: 39.8 µM [inhibitor, single point]",–
COc1cc2oc(=O)c(Br)c(C)c2c(OC)c1OC,–,inactive: -4.27%
CC(OC(=O)c1ccccc1NS(=O)(=O)c1cccc(C(F)(F)F)c1)C(=O)N(C)Cc1ccccc1 (stereo not given),"inconclusive: 35.5 µM [inhibitor, single point]",–
Cc1ccc(-c2nnc3sc(CCc4ccccc4)nn23)cc1,–,inactive: 2.97%
CCN1C(=O)c2cccc3c(Cl)ccc(c23)C1=O,"inconclusive: 10 µM [inhibitor, partial curve]",–
Cc1ccsc1C(=O)OCC(=O)N1CCN(C(=O)c2ccco2)CC1,–,inactive: -4.3%
Cc1c(-c2ccccc2)nc2ccccc2c1C(=O)NCc1cccs1,–,inactive: 3.17%
CCOc1ccc(-c2nc(CSCC(=O)NCc3ccco3)c(C)o2)cc1,"inconclusive: 15.8 µM [inhibitor, partial curve]",–
COc1ccc(/C=C/C(=O)c2ccc3ccccc3c2O)cc1CN1CCOCC1,"inconclusive: 28.2 µM [inhibitor, partial curve]",–
C=CCNCCCOc1ccc(Cl)cc1Br,"inconclusive: 39.8 µM [inhibitor, single point]",–
O=C(Oc1ccccc1)c1cccc2cccc(C(=O)Oc3ccccc3)c12,"inconclusive: 20 µM [inhibitor, single point]",–
C=CCn1c(SCC(=O)NC23CC4CC(CC(C4)C2)C3)nc2cc(C(=O)O)ccc2c1=O,"inconclusive: 17.8 µM [inhibitor, partial curve]",–

Structure (SMILES),Potency,"activity change, negative = inhibition"
CCOC(=O)C1=C(N)OC2=C(C(=O)CCC2)C1c1cccnc1 (stereo not given),–,inactive: -6.02%
CCc1ccc(-c2cc(C(=O)N3N=C(C(F)F)CC3(O)C(F)F)c3ccccc3n2)cc1 (stereo not given),"inconclusive: 31.6 µM [inhibitor, single point]",–
CC(C)c1ccc(NC(=O)CSC(C)c2nc3ccccc3c(=O)[nH]2)cc1 (stereo not given),"inconclusive: 39.8 µM [inhibitor, single point]",–
CN(C)c1ncnc2c1NC1=C(S2)C(=NCCCC(=O)O)CC(C)(C)C1,"inconclusive: 17.8 µM [inhibitor, single point]",–
O=C(NCc1csc(-c2cccs2)n1)c1ccsc1,"inconclusive: 25.1 µM [inhibitor, single point]",–
COC(CC(=O)NNC(=S)Nc1ccc(Cl)cc1)OC,–,inactive: -4.88%
CC(=O)Nc1ccc(S(=O)(=O)Nc2nc3ccccc3nc2Nc2cccc(O)c2)cc1,"inconclusive: 31.6 µM [inhibitor, single point]",–
COc1ccc(/C=N/NC(=O)c2ccccc2NC(=O)c2ccco2)c(OC)c1,"inconclusive: 25.1 µM [inhibitor, partial curve]",–
Cc1ccc(-c2nc3cccnc3o2)cc1NC(=O)COc1ccc(C(C)(C)C)cc1,"inconclusive: 25.1 µM [inhibitor, partial curve]",–
CCNCCNC(=O)c1c(O)c2c([nH]c1=O)CCCC2,"inconclusive: 39.8 µM [inhibitor, single point]",–
CSc1cccc(NC(=O)Nc2nc3c(C)cccc3s2)c1,"inconclusive: 39.8 µM [inhibitor, single point]",–
Cc1ccc(NC(=O)Nc2ccccc2C#N)c(Cl)c1,"inconclusive: 31.6 µM [inhibitor, partial curve]",–
COc1ccccc1C(=O)Nc1nnc(-c2ccc3c(c2)CCCC3)o1,"inconclusive: 35.5 µM [inhibitor, single point]",–
Cc1ccc(CNC(=O)CCNC(=O)c2ccco2)cc1,–,inactive: 11%
O=C(NC1CC1)C1CCN(Cc2cnn(-c3ccccc3)c2-n2cccc2)CC1,"inconclusive: 35.5 µM [inhibitor, single point]",–
CCn1c(SCC(=O)c2ccccc2)nc2ccccc2c1=O,"inconclusive: 39.8 µM [inhibitor, single point]",–
COc1cc(/C=N/NC(=O)c2cc(-c3ccccc3)sc2N)cc(OC)c1OC,"inconclusive: 35.5 µM [inhibitor, single point]",–
COCCNC(=O)c1c[nH]c2ccc(OC)cc2c1=O,"inconclusive: 39.8 µM [inhibitor, single point]",–
O=C(c1ccccc1)c1cnc(Nc2ccccc2Cl)s1,"inconclusive: 39.8 µM [inhibitor, single point]",–
CCN(CC)c1ccc(/C=C/C(=O)c2ccc(Br)cc2)cc1,–,inactive: -7.05%
Cc1ccc2c(CC(=O)NCc3ccco3)coc2c1C,–,inactive: 6.55%
COCCn1c(C)cc(/C=C2/NC(=O)N(Cc3ccc(C)cc3)C2=O)c1C,"inconclusive: 25.1 µM [inhibitor, single point]",–
CC1(C)CC(=O)C2=C(C1)c1c(ccc3ccccc13)NC2c1ccc(Br)o1 (stereo not given),"inconclusive: 31.6 µM [inhibitor, partial curve]",–
CCN1CCc2c(C#N)c(N3CCOCC3)nc(NCCO)c2C1,"inconclusive: 20 µM [inhibitor, partial curve]",–

Structure (SMILES),Potency,"activity change, negative = inhibition"
COc1ccc2nc(/C(C#N)=C\c3ccc(Oc4ccc([N+](=O)[O-])cn4)cc3)[nH]c2c1,–,inactive: -13.1%
CCN(C(=O)COC(=O)c1ccc2c(=O)n3c(nc2c1)CCC3)C1CCS(=O)(=O)C1 (stereo not given),"inconclusive: 35.5 µM [inhibitor, single point]",–
Cc1ccc(-c2csc(NC(=O)CSc3nc4ccccc4c(=O)n3CCCN(C)C)n2)cc1,"inconclusive: 20 µM [inhibitor, single point]",–
CC(C)C(c1nnnn1Cc1ccccc1)N(CCCO)Cc1cc2cc3c(cc2[nH]c1=O)OCO3 (stereo not given),"inconclusive: 28.2 µM [inhibitor, partial curve]",–
CCOC(=O)c1c(C)n(O)c2ccc(Cl)cc2c1=O,"inconclusive: 35.5 µM [inhibitor, single point]",–
O=C(CBr)N1CCc2ccccc2C(c2ccccc2)C1 (stereo not given),–,inactive: 8.21%
c1cncc(CSc2nnc3ccc(-c4ccco4)nn23)c1,"inconclusive: 25.1 µM [inhibitor, partial curve]",–
Nc1nc(N)c2cc(Sc3ccc4ccccc4c3)ccc2n1,"inconclusive: 28.2 µM [inhibitor, partial curve]",–
O=C(Nc1ccc(F)cc1)C(c1ccccc1)N1CCN(S(=O)(=O)c2ccccc2)CC1 (stereo not given),–,inactive: -4.08%
CCc1cccc(C)c1NC(=S)NCC1CCN(c2ccc(OC)cc2)C1 (stereo not given),"inconclusive: 4.47 µM [inhibitor, partial curve]",–
O=C(COC(=O)c1ccccn1)Nc1ccccc1Cl,–,inactive: -17.8%
COc1ccc(/C=C/c2cc[n+](C(=O)Cc3ccccc3)cc2)cc1,"inconclusive: 25.1 µM [inhibitor, single point]",–
N#C/C(=C/c1cn(-c2ccccc2)nc1-c1cccc(OCc2ccc(F)cc2)c1)C(=O)NCCCn1ccnc1,"inconclusive: 25.1 µM [inhibitor, partial curve]",–
CCOC(=O)C(=O)Nc1ccc(OCc2ccccc2)cc1,–,inactive: -9.4%
CC1(C)CC(NC(=O)C(Cl)(Cl)Cl)CC(C)(C)N1,–,inactive: 10%
Cc1cccn2c(=O)c3cc(C(N)=S)c(=N)n(CCCOC(C)C)c3nc12,"inconclusive: 28.2 µM [inhibitor, partial curve]",–
CC1=NN(c2ccccc2)C(=O)/C1=C\c1cn(CCC#N)nc1-c1ccc(Cl)cc1,"inconclusive: 3.16 µM [inhibitor, full curve]",–
COc1ccc(OCC(=O)c2c[nH]c3ccccc23)cc1,–,inactive: 0.0569%
COc1ccc(C2=CC(c3ccc(F)cc3)n3nnnc3N2)cc1 (stereo not given),"inconclusive: 31.6 µM [inhibitor, single point]",–
Cc1cc2ccccn2c1C(C[N+](=O)[O-])c1ccc(N(C)C)cc1 (stereo not given),"inconclusive: 14.1 µM [inhibitor, partial curve]",–
Cn1c(NC(=O)c2cccc(Cn3cc(Cl)cn3)c2)nc2ccccc21,"inconclusive: 35.5 µM [inhibitor, single point]",–
Cc1cc(N)n2ncc(-c3cccc(Br)c3)c2n1,"inconclusive: 28.2 µM [inhibitor, partial curve]",–
